pIC50: −log10 of the molar value. Lines with a small IC50 respond at low doses; where the fit passes the top or lowest dose, that dose stands as a limit. AUC, from the same fit, is the share of area under the viability curve across the 256-fold dose range; it is 1 without any effect and falls as sensitivity rises. An inferred top dose was derived from the fitted curves, not read from the paper.
Columns and labels:
Experiment in all cases: Viability of human cancer cell lines after 72 h of drug (GDSC screen)
CCT007093 = compound: O=C1/C(=C/c2cccs2)CC/C1=C\c1cccs1 [CCT007093]; conditions: top dose 6.6 µM; top dose inferred
Procedure: (§1)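 Human cancer cell lines in 384-well plates, medium with 10% serum, drug for 72 h over a 256-fold dose range (nine 2-fold or five 4-fold steps up to the top dose). Adherent lines were fixed and stained with the nucleic acid dye Syto60, suspension lines read with resazurin; signal relative to control wells, capped at 0 and 100%. One two-parameter sigmoid per drug and line, fitted in a mixed model over all curves with the slope shared within a line.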

BAY 61-3606 = compound: COc1ccc(-c2cc3nccn3c(Nc3ncccc3C(N)=O)n2)cc1OC [BAY 61-3606]; conditions: top dose 8 µM; top dose inferred
Procedure: as §1

KIN001-266 = compound: CCN1CCC(n2cc(CNc3cc(Cl)c4ncc(C#N)c(Nc5ccc(F)c(Cl)c5)c4c3)nn2)CC1 [KIN001-266]; conditions: top dose 20 µM; top dose inferred
Procedure: as §1

QL-XII-47 = compound: C=CC(=O)N1CCc2ccc(-n3c(=O)ccc4cnc5ccc(-c6cnn(C)c6)cc5c43)cc21 [QL-XII-47]; conditions: top dose 10.24 µM; top dose inferred
Procedure: as §1

Cell Line	AUC (CCT007093)	pIC50 (CCT007093)	AUC (BAY 61-3606)	pIC50 (BAY 61-3606)	AUC (KIN001-266)	pIC50 (KIN001-266)	AUC (QL-XII-47)	pIC50 (QL-XII-47)
NCI-H1436 (small cell lung carcinoma, suspension)	0.985	< 5.18	0.931	< 5.10	0.653	5.45	0.775	5.33
NCI-H1437 (lung adenocarcinoma, adherent)	0.903	< 5.18	0.724	5.65	0.882	< 4.70	0.577	5.98
NCI-H1563 (lung adenocarcinoma, adherent)	0.983	< 5.18	0.937	< 5.10	0.925	< 4.70	0.559	6.02
NCI-H1568 (lung adenocarcinoma, adherent)	0.939	< 5.18	0.778	5.39	0.969	< 4.70	0.837	5.02
NCI-H1573 (lung adenocarcinoma, adherent)	0.991	< 5.18	0.949	< 5.10	0.977	< 4.70	0.968	< 4.99
NCI-H1581 (large cell lung carcinoma, semi-adherent)	0.984	< 5.18	0.927	< 5.10	0.932	< 4.70	0.833	5.23
NCI-H1623 (lung adenocarcinoma, adherent)	0.937	< 5.18	0.978	< 5.10	0.921	< 4.70	0.944	< 4.99
NCI-H1648 (lung adenocarcinoma, adherent)	0.935	< 5.18	0.828	5.27	0.865	4.71	0.773	5.37
NCI-H1651 (lung adenocarcinoma, adherent)	0.927	< 5.18	0.806	5.35	0.976	< 4.70	0.987	< 4.99
NCI-H1666 (lung adenocarcinoma, semi-adherent)	0.987	< 5.18	0.961	< 5.10	0.864	< 4.70	0.85	5.05
NCI-H1688 (small cell lung carcinoma, adherent)	0.987	< 5.18	0.904	< 5.10	0.85	4.75	0.778	5.34
NCI-H1693 (lung adenocarcinoma, adherent)	0.964	< 5.18	0.898	< 5.10	0.949	< 4.70	0.92	< 4.99
NCI-H1694 (small cell lung carcinoma, suspension)	0.989	< 5.18	0.929	< 5.10	0.899	< 4.70	0.246	6.92
NCI-H1703 (lung adenocarcinoma, adherent)	0.981	< 5.18	0.963	< 5.10	0.973	< 4.70	0.75	5.40
NCI-H1734 (lung adenocarcinoma, adherent)	0.985	< 5.18	0.643	5.89	0.881	< 4.70	0.773	5.36
NCI-H1755 (lung adenocarcinoma, adherent)	0.919	< 5.18	0.898	< 5.10	0.603	5.60	0.892	< 4.99
NCI-H1770 (non-small cell lung carcinoma, suspension)	0.989	< 5.18	0.797	5.49	0.986	< 4.70	0.938	< 4.99
NCI-H1781 (lung adenocarcinoma, adherent)	0.968	< 5.18	0.959	< 5.10	0.94	< 4.70	0.989	< 4.99
NCI-H1792 (lung adenocarcinoma, adherent)	0.988	< 5.18	0.957	< 5.10	0.988	< 4.70	0.897	< 4.99
NCI-H1793 (lung adenocarcinoma, adherent)	0.967	< 5.18	0.981	< 5.10	0.962	< 4.70	0.928	< 4.99
NCI-H1836 (small cell lung carcinoma, suspension)	0.985	< 5.18	0.934	< 5.10	0.981	< 4.70	0.957	< 4.99
NCI-H1869 (lung squamous cell carcinoma, adherent)	0.985	< 5.18	0.876	< 5.10	0.904	< 4.70	0.887	< 4.99
NCI-H1876 (small cell lung carcinoma, adherent)	0.987	< 5.18	0.928	< 5.10	0.985	< 4.70	0.85	5.10
NCI-H1915 (large cell lung carcinoma, adherent)	0.987	< 5.18	0.821	5.32	0.809	4.97	0.875	< 4.99
NCI-H1944 (lung adenocarcinoma, adherent)	0.978	< 5.18	0.671	5.81	0.849	4.78	0.576	5.98
NCI-H1975 (lung adenocarcinoma, adherent)	0.983	< 5.18	0.592	6.03	0.911	< 4.70	0.776	5.33
NCI-H1993 (lung adenocarcinoma, adherent)	0.95	< 5.18	0.944	< 5.10	0.963	< 4.70	0.706	5.53
NCI-H2009 (lung adenocarcinoma, adherent)	0.981	< 5.18	0.828	5.27	0.978	< 4.70	0.971	< 4.99

Cell Line	AUC (CCT007093)	pIC50 (CCT007093)	AUC (BAY 61-3606)	pIC50 (BAY 61-3606)	AUC (KIN001-266)	pIC50 (KIN001-266)	AUC (QL-XII-47)	pIC50 (QL-XII-47)
NCI-H2023 (lung adenocarcinoma, adherent)	0.959	< 5.18	0.981	< 5.10	0.926	< 4.70	0.943	< 4.99
NCI-H2029 (small cell lung carcinoma, adherent)	0.991	< 5.18	0.972	< 5.10	0.988	< 4.70	0.748	5.52
NCI-H2030 (lung adenocarcinoma, adherent)	0.981	< 5.18	0.747	5.54	0.816	4.88	0.673	5.68
NCI-H2052 (mesothelioma, adherent)	0.943	< 5.18	0.84	5.10	0.975	< 4.70	0.914	< 4.99
NCI-H2081 (small cell lung carcinoma, suspension)	0.988	< 5.18	0.919	< 5.10	0.888	< 4.70	0.439	6.37
NCI-H2085 (lung adenocarcinoma, adherent)	0.985	< 5.18	0.88	< 5.10	0.854	4.75	0.572	5.99
NCI-H2087 (lung adenocarcinoma, semi-adherent)	0.983	< 5.18	0.748	5.56	0.859	4.73	0.354	6.61
NCI-H2110 (non-small cell lung carcinoma, adherent)	0.983	< 5.18	0.885	< 5.10	0.633	5.53	0.716	5.58
NCI-H2122 (lung adenocarcinoma, adherent)	0.989	< 5.18	0.667	5.85	0.923	< 4.70	0.966	< 4.99
NCI-H2135 (non-small cell lung carcinoma, adherent)	0.979	< 5.18	0.858	5.20	0.838	4.89	0.548	6.06
NCI-H2141 (small cell lung carcinoma, suspension)	0.991	< 5.18	0.894	< 5.10	0.913	< 4.70	0.93	< 4.99
NCI-H2170 (lung squamous cell carcinoma, adherent)	0.985	< 5.18	0.835	5.25	0.974	< 4.70	0.968	< 4.99
NCI-H2172 (non-small cell lung carcinoma, adherent)	0.966	< 5.18	0.982	< 5.10	0.885	< 4.70	0.894	< 4.99
NCI-H2227 (small cell lung carcinoma, semi-adherent)	0.985	< 5.18	0.986	< 5.10	0.834	4.81	0.524	6.12
NCI-H2291 (lung adenocarcinoma, adherent)	0.983	< 5.18	0.983	< 5.10	0.971	< 4.70	0.969	< 4.99
NCI-H2347 (lung adenocarcinoma, adherent)	0.977	< 5.18	0.819	5.23	0.873	< 4.70	0.845	5.00
NCI-H2405 (lung adenocarcinoma, adherent)	0.961	< 5.18	0.859	5.11	0.929	< 4.70	0.844	5.07
NCI-H2444 (non-small cell lung carcinoma, adherent)	0.983	< 5.18	0.988	< 5.10	0.967	< 4.70	0.953	< 4.99
NCI-H2452 (mesothelioma, adherent)	0.967	< 5.18	0.984	< 5.10	0.976	< 4.70	0.984	< 4.99
NCI-H3122 (lung adenocarcinoma, adherent)	0.986	< 5.18	0.711	5.70	0.904	< 4.70	0.74	5.49
NCI-SNU-1 (stomach, suspension)	0.981	< 5.18	0.721	5.66	0.743	5.19	0.6	5.92
NCI-SNU-5 (stomach, suspension)	0.983	< 5.18	0.981	< 5.10	0.989	< 4.70	0.977	< 4.99
NCI-SNU-16 (stomach, suspension)	0.976	< 5.18	0.977	< 5.10	0.987	< 4.70	0.991	< 4.99
NEC8 (testis, adherent)	0.973	< 5.18	0.892	5.16	0.853	4.92	0.461	6.29
NH-12 (neuroblastoma, adherent)	0.974	< 5.18	0.736	5.59	0.858	4.70	0.521	6.13
NKM-1 (acute myeloid leukaemia, suspension)	0.973	< 5.18	0.615	5.98	0.829	4.89	0.462	6.30
NMC-G1 (glioma, adherent)	0.982	< 5.18	0.818	5.23	0.775	5.01	0.491	6.22

Source: the supplement of paper PMC4967469
